Measured values from ChEMBL document CHEMBL1201862, “PubChem BioAssay data set” (2004).
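In this assay, cells in 96-well plates receive the compound at five concentrations for 48 hours. Endpoints are linearly interpolated between the surrounding concentrations. GI50 is the concentration that inhibits growth by half.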 Active and inactive are the calls of the source. Rule as the data show it: active = GI50 up to about 1.1 µM and inactive = higher.

The compounds below were run on NCI-H322M (assay: NCI tumour cell line growth inhibition, 48 h).
With `Cc1cc(S(=O)(=O)Nc2nc3ccccc3nc2-c2cccc([N+](=O)[O-])c2)c(S)cc1Cl` the GI50 was inactive: 17.5 µM. With `NN=C(S)Nc1cccc(Cl)c1` the GI50 was inactive: > 100 µM. With `O=S(=O)(c1cccc(C(F)(F)F)c1)N1c2ccccc2-n2cccc2C1c1cccnc1` (stereo not given) the GI50 was inactive: > 40.3 µM. In the case of `CC(=O)Oc1ccc2cc(Oc3ccccc3)c(=O)oc2c1`, the GI50 is reported as inactive: > 100 µM. For `CCOC(=O)c1ccc2c(=O)n3c(C(=O)OCC)ccc3c(=O)n12`, the GI50 was inactive: > 100 µM. In the case of `O=C(Nc1ccc(Cl)cc1)c1cc(S(=O)(=O)NC2=Nc3ccc(Cl)cc3C(c3ccccc3)N2)c(SSc2cc(Cl)c(C(=O)Nc3ccc(Cl)cc3)cc2S(=O)(=O)NC2=Nc3ccc(Cl)cc3C(c3ccccc3)N2)cc1Cl` (stereo not given), the GI50 is reported as inactive: > 100 µM. In the case of `C=C(C)C(=O)O[C@@H]1C/C(C)=C\[C@H](OC(C)=O)C[C@](C)(O)/C=C2/OC(=O)C(COC(C)=O)=C21`, the GI50 is reported as inactive: 8.39 µM. With `O=C(/C=C/c1ccco1)c1ccc(NCc2nc3ccccc3[nH]2)cc1` the GI50 was inactive: 9.59 µM. In the case of `CNC(=O)N(CCC#N)CCN(C(=O)NC)c1ccccc1`, the GI50 is reported as inactive: > 100 µM. In the case of `O=[N+]([O-])/C(C(Cl)=C(Cl)Cl)=C(/Nc1ccccc1)Sc1ccccc1`, the GI50 is reported as inactive: 29.4 µM. For `CCOC(=O)COC1=Nc2cc(OC)c(OC)c3nc(Cl)cc(c23)C1=O`, the GI50 was inactive: 10.9 µM. In the case of `CCOC(=O)CNC1C(NC(C)=O)C(OC)OC2COC(c3ccccc3)OC21` (stereo not given), the GI50 is reported as inactive: > 100 µM. For `Clc1ccc(CCn2ccc3ccccc32)c(Cl)c1`, the GI50 was inactive: > 100 µM. For `N#CC(/C(=N/NC(=O)C(=O)NN)C(=O)NC12CC3CC(CC(C3)C1)C2)c1ccccc1` (stereo not given), the GI50 was inactive: > 100 µM. For `CN(C)CCOc1ccc2[nH]c(C(=O)N3CC(CCl)c4c3cc(NC(=O)OCc3ccc([N+](=O)[O-])cc3)c3ccccc43)cc2c1` (stereo not given), the GI50 was inactive: 1.3 µM. In the case of `CC(=N/N=C/c1ccccn1)/C(C)=N/N=C(C)/C(C)=N/N=C(C)/C(C)=N/N=C(C)/C(C)=N\N=C\c1ccccn1`, the GI50 is reported as inactive: > 100 µM. For `C=CCn1c(N)c(C#N)c(C#N)c1-c1ccccc1`, the GI50 was inactive: > 100 µM. `Cc1ccc(C)c(NC(=O)C(=O)C2C(=O)N(c3ccccc3)N=C2N)c1` (stereo not given) was tested, and the GI50 was inactive: > 100 µM. For `CCN(CC)CCn1nc2c3c(c(NCCN)ccc31)Sc1cc(O)ccc1-2`, the GI50 was active: 0.638 µM. For `C#CC1(O)c2ccccc2C(=O)c2ccccc21`, the GI50 was inactive: > 100 µM. In the case of `CCCCCCSc1nc(N)nc2nc[nH]c12`, the GI50 is reported as inactive: 39.2 µM. `O=C1/C(=C/c2ccccc2)CN(C(=O)C(Cl)(Cl)Cl)C/C1=C\c1ccccc1` was tested, and the GI50 was inactive: 5.78 µM. With `COC(=O)C1=CNC(C(=O)OC)=NN1` the GI50 was inactive: > 100 µM. In the case of `S=c1sscc1N1CCSc2ssc(=S)c21`, the GI50 is reported as inactive: > 100 µM. With `O=C1C2CCCCC2C(=O)N1n1c(-c2ccccc2)n[nH]c1=O` (stereo not given) the GI50 was inactive: > 100 µM. In the case of `CCOC(=O)c1cc(Br)c(-c2cc(C)co2)[nH]1`, the GI50 is reported as inactive: > 100 µM. In the case of `COC(=O)c1cc(OCc2cc(OCc3ccc(Br)cc3)cc(OCc3ccc(Br)cc3)c2)cc(OCc2cc(OCc3ccc(Br)cc3)cc(OCc3ccc(Br)cc3)c2)c1`, the GI50 is reported as inactive: > 100 µM. For `CC1C(c2ccccc2)N(C)C(c2ccccc2)C(C)C1(O)c1ccccc1` (stereo not given), the GI50 was inactive: > 100 µM. In the case of `C/C(=N/N(C=O)C[n+]1ccccc1)C(CN(CC(C)C)CC(C)C)C(=O)Nc1ccc(C)cc1C` (stereo not given), the GI50 is reported as inactive: > 100 µM. With `CCCCC(C)C1CCC2(C)C=CC(=O)C(C)=C2C1O` (stereo not given) the GI50 was inactive: > 100 µM. `c1ccc2c(c1)[nH]c1c2nc2ccccn21` was tested, and the GI50 was inactive: > 100 µM. In the case of `NS(=O)(=O)c1ccc(NNc2c3ccccc3nc3c(C(=O)Nc4ccc(S(=O)(=O)Nc5ncccn5)cc4)cccc23)cc1`, the GI50 is reported as inactive: > 25 µM. In the case of `CCCC(=O)Nc1cc(/C=C/C(=O)N2CC(CCl)c3ccc([N+](=O)[O-])cc32)n(C)c1` (stereo not given), the GI50 is reported as inactive: > 100 µM. In the case of `CCOC(=O)c1cc(Sc2ccc(N)c(C(=O)OCC)c2)ccc1N`, the GI50 is reported as inactive: 28.2 µM. In the case of `CC(C)=C=CP(=O)(O)c1ccccc1`, the GI50 is reported as inactive: > 100 µM. With `Cc1nc(C(N)=S)sc1C(=O)CC(=O)C(=O)Nc1c(C(C)C)cccc1C(C)C` the GI50 was inactive: 31.3 µM. For `N#CC(C#N)=C1NC(=O)C(c2ccccc2)C(=O)N1` (stereo not given), the GI50 was inactive: > 100 µM. For `CCOC(=O)/C=C/C1(CCOC(C)=O)CCCCC1`, the GI50 was inactive: > 10 µM. For `COC(=O)[C@@H]1[C@H](O)CC[C@H]2[C@@]1(C)CC[C@@H](C)[C@]2(COC(C)=O)CC(=O)c1ccoc1`, the GI50 was inactive: > 50 µM. In the case of `O=C1C(=CNc2ccc([N+](=O)[O-])cc2)C(=O)N(c2ccccc2)C(=O)N1c1ccccc1`, the GI50 is reported as inactive: > 100 µM. In the case of `COc1ccc(C2c3c(-c4ccccc4)nn(-c4ccccc4)c3Oc3ncn(N)c(=N)c32)cc1OC` (stereo not given), the GI50 is reported as inactive: 1.95 µM. `Cc1ccccc1NC(=O)CC(=O)NNCC(=O)Nc1nnc(-c2ccccc2)s1` was tested, and the GI50 was inactive: > 100 µM. For `O=C(CCc1nnc(S)[nH]1)Nc1ccc(Cl)c(Cl)c1`, the GI50 was inactive: > 100 µM. `C=C(Br)C(Br)(CCl)CCC(Cl)C(C)C.C=C(Cl)C(Br)(CCl)CCC(Cl)C(C)C` (stereo not given) was tested, and the GI50 was inactive: 4.48 µM. For `Cc1cc(Br)c(O)c(-c2cscn2)c1`, the GI50 was inactive: 24.6 µM.
